# From PubChem BioAssay AID504332 (National Center for Advancing Translational Sciences (NCATS), 2011)
# Where “and” joins values, the source holds several entries; their conditions need not be identical. Equal values may be shown once. About 31,000 (8.9%) of roughly 350,000 compounds were called active. The shares of active, inactive and inconclusive entries below differ from those in the screen. Calls come from the whole dose curve; as a rule, active = well fitted inhibition curve with a large enough effect; inconclusive = small, poorly fitted or top-dose-only effect; inactive = no such curve, though single readings can be large or run the other way. A potency beside an inconclusive call is a rough fit, not a confirmed value.
# Molecular target: Histone-lysine N-methyltransferase EHMT2 (Homo sapiens) (UniProt Q96KQ7)
# Assay: qHTS Assay for Inhibitors of Histone Lysine Methyltransferase G9a; note: nearly all actives have a fitted effect of over 75% in size
# Conditions: G9a H3K9 monomethylation, AlphaScreen, 2 h; activity, negative = inhibition: at 59 µM (top of the series) unless noted
# In short: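 G9a (20 nM) was preincubated 15 min with compound, then reacted 2 h at room temperature with 500 nM biotin-H3K9 peptide and 20 µM SAM. Monomethyl-H3K9 detected by AlphaScreen using anti-H3K9me1 antibody.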
# % is set by controls: 0 for no effect and ±100 for the full control effect; potency is the fitted concentration of half-maximal effect; tags give direction and shape of the fitted curve.
# Sequence of UniProt Q96KQ7 (Q96KQ7 whole entry, looked up): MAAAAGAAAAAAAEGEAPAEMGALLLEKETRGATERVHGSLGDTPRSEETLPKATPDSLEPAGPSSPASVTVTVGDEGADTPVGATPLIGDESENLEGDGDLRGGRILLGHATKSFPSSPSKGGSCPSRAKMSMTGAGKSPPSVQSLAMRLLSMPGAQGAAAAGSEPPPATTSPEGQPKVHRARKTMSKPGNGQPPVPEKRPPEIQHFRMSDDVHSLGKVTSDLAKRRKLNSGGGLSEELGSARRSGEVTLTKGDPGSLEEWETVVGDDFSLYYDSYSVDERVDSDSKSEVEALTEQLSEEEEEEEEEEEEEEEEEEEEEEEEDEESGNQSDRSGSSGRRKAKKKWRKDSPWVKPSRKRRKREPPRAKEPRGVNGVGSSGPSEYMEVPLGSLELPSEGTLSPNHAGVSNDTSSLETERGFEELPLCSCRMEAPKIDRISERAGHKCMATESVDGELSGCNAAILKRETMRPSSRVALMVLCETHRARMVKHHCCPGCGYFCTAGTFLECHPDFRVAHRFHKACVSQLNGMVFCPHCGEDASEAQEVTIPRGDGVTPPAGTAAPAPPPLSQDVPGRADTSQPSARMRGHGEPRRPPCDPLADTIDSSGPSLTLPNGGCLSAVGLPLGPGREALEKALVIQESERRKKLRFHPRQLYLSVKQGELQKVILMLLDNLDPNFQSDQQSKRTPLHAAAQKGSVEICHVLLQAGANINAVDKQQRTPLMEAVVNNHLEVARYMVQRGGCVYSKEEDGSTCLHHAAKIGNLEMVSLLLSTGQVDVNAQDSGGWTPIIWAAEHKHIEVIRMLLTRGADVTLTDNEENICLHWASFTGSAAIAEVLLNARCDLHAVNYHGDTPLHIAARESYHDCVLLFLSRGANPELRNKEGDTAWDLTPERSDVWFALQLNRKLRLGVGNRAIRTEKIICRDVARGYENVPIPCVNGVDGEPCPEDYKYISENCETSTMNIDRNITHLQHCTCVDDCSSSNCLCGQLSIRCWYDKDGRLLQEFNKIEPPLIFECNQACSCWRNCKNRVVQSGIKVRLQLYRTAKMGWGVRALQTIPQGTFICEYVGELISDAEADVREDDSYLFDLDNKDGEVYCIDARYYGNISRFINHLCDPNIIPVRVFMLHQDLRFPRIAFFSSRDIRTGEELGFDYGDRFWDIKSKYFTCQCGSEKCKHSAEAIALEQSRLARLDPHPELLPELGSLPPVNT
Compound,Potency,"activity, negative = inhibition"
CC1(C)CC(=O)c2sc(NS(C)(=O)=O)nc2C1,"inconclusive: 39.8 µM [inhibitor, single point]",
Oc1c(I)cc(Cl)c2cccnc12,active: 3.98 µM and active: 35.5 µM,
CC(C)Oc1ccc(CNS(=O)(=O)c2cnc(N)nc2)cc1,,inactive: 12.3%
O=C(CSc1nc2ccccc2[nH]1)c1ccco1,,inactive: -9.31%
CC1(C)CC(=O)N(CC(=O)N2CCN(c3ncccn3)CC2)c2ccccc2S1(=O)=O,"inconclusive: 39.8 µM [inhibitor, partial curve, poor fit]",
Cc1ccc(C(=O)CNc2ccccc2)cc1,"inconclusive: 89.1 µM [inhibitor, single point]",
CCOc1cc(CNCCSc2nnnn2-c2ccccc2)cc(Cl)c1OC,,inactive: -1.32%
Cc1ccc2c(=O)cc(C(=O)NCCc3ccc(S(N)(=O)=O)cc3)oc2c1,"inconclusive: 79.4 µM [inhibitor, single point]",
CCOc1ccc(C2C(C(=O)c3ccc(C)o3)=C(O)C(=O)N2Cc2cccnc2)cc1 (configuration not stated),active: 39.8 µM,
COc1ccccc1NC(=O)C1=C(C)Nc2ncnn2C1c1ccc(C)o1 (configuration not stated),,inactive: -42.2% [at 12.7 µM]
Cc1ccc(S(=O)(=O)/N=C2\C=C(Nc3cccc(C(=O)O)c3)C(=O)c3ccccc32)c(C)c1,active: 2.82 µM,
CN1CCN(C(CNC(=O)C(=O)Nc2ccc(F)cc2F)c2ccc3c(c2)OCO3)CC1 (configuration not stated),,inactive: -4.39%
CCC(=O)Nc1cccc(-c2csc(-c3ccccc3)n2)c1,,inactive: -10.3% [at 2.33 µM]
Cc1ccc2nc(-c3cccnc3)cc(C(=O)Nc3ccc(F)cc3C)c2c1,,inactive: 12.8%
COc1ccccc1Nc1cc(C(=O)N2CCc3ccccc3C2)c2ccccc2n1,,inactive: 9.17% [at 102 µM]
CCCc1nn2c(=O)cc(COC(=O)c3ccc(NC(=O)C(C)Oc4ccccc4)cc3)nc2s1 (configuration not stated),,inactive: 12.4%
COc1ccccc1C(=O)Oc1ccc2c(c1)O/C(=C\c1ccncc1)C2=O,"inconclusive: 35.5 µM [inhibitor, partial curve, poor fit]",
CC(C)(C#N)c1cc(Cn2cncn2)cc(C(C)(C)C#N)c1,inactive,
COc1cc2nc(NC(=O)c3ccc(F)cc3Cl)sc(=O)c2cc1OC,active: 35.5 µM,
CN(C)c1ccnc(C(=O)O)c1,active: 4.47 µM,
O=c1[nH]cnc2sc3c(c12)CN(Cc1ccccc1)CC3,active: 25.1 µM,
CC(=O)Oc1oc(-c2ccccc2)nc1/C=N/c1ccccn1,"inconclusive: 35.5 µM [inhibitor, single point]",
COc1cc(NC(=O)CCS(=O)(=O)c2nc(-c3cccs3)cc(C(F)(F)F)n2)cc(OC)c1OC,"inconclusive: 7.08 µM [inhibitor, single point]",
O=Cc1ccc2oc3nc4n(c(=O)c3c(=O)c2c1)CCCS4,"inconclusive: 79.4 µM [inhibitor, single point]",

Compound,Potency,"activity, negative = inhibition"
O=C(Oc1ccc(-c2nnco2)cc1)c1ccc(F)c(S(=O)(=O)N2CCOCC2)c1,"inconclusive: 44.7 µM [inhibitor, partial curve, poor fit]",
Cc1cccc(OCCCN2C(=O)C(=O)c3cc(C)ccc32)c1,active: 31.6 µM,
Cc1noc(C)c1CSc1nnc(-c2ccncc2)n1-c1ccc(Cl)c(Cl)c1,,inactive: 53%
COc1cc(OC)c(OC)cc1CN1CCN(c2ccccc2OC)CC1,"inconclusive: 31.6 µM [inhibitor, single point]",
O=C(CSc1nnc(COc2ccc(Cl)cc2)o1)NC1CC2CCC1C2 (configuration not stated),"inconclusive: 50.1 µM [inhibitor, single point]",
CCCOc1ccc(C(=O)c2ccccc2C(=O)O)cc1OCCC,"inconclusive: 79.4 µM [inhibitor, partial curve, poor fit]",
CC(Cc1ccccc1)C(=O)NCc1nc2ccccc2s1 (configuration not stated),"inconclusive: 89.1 µM [inhibitor, single point]",
COc1ccc(NC(=O)c2cc3ccccc3o2)cc1OC,"inconclusive: 25.1 µM [inhibitor, partial curve, poor fit]",
CCOc1ccccc1NC(=O)CSc1nccn1-c1ccc(Cl)cc1,active: 12.6 µM,
CC(NC(=O)COc1ccccc1)C(c1ccccc1)N1CCN(C)CC1 (configuration not stated),"inconclusive: 28.2 µM [inhibitor, single point]",
Cn1c(SCC(=O)N2CCOCC2)nnc1-c1cnccn1,"inconclusive: 35.5 µM [inhibitor, partial curve, poor fit]",
COc1cc(C(=S)N2CCOCC2)ccc1OC(=O)/C=C/c1ccco1,"inconclusive: 50.1 µM [inhibitor, single point]",
O=C(O)CCc1nc2ccccc2n(CCc2ccccc2)c1=O,"inconclusive: 79.4 µM [inhibitor, partial curve, poor fit]",
COc1ccccc1C(=O)Nc1nc2cc3c(cc2s1)OCCO3,"inconclusive: 44.7 µM [inhibitor, partial curve, poor fit]",
COc1ccccc1C(c1nnnn1CCc1ccccc1)N1CCN(c2ccccc2)CC1 (configuration not stated),"inconclusive: 89.1 µM [inhibitor, single point]",
CC(=O)NC(Cc1c[nH]c2ccccc12)C(=O)OCC(=O)Nc1ccc2c(c1)OCO2 (configuration not stated),,inactive: -8.7%
Nc1nc(N2CCCCC2)c(C=O)c(N2CCCCC2)n1,"inconclusive: 89.1 µM [inhibitor, single point]",
COc1ccccc1N1CCN(S(=O)(=O)c2cn(C)c(=O)n(C)c2=O)CC1,"inconclusive: 28.2 µM [inhibitor, partial curve, poor fit]",
Cc1cc(/C=C2/NC(=O)N(Cc3ccccc3F)C2=O)c(C)n1-c1ccccn1,"inconclusive: 89.1 µM [inhibitor, single point]",
COc1ccc(/C=C2\C(=O)ON=C2c2ccccc2)cc1,active: 39.8 µM,
CN(C)CCCN(Cc1ccccc1)C(=S)Nc1ccc(F)c(Cl)c1,"inconclusive: 56.2 µM [inhibitor, partial curve]",
CC1CC1C(=O)OCC(=O)Nc1cccc([N+](=O)[O-])c1 (configuration not stated),,inactive: 7.85% [at 102 µM]
Cc1oc(C(C)(C)C)c(CN2CCCC2)c1C(=O)O,"inconclusive: 89.1 µM [inhibitor, single point]",
O=C(Nc1nc(-c2cccs2)cs1)c1ccc(S(=O)(=O)N2CCCCC2)cc1,"inconclusive: 56.2 µM [inhibitor, partial curve, poor fit]",

Compound,Potency,"activity, negative = inhibition"
CSc1ccccc1NC(=O)CSc1nnnn1-c1ccccc1SC,,inactive: -33.2%
CCSc1nc(-c2ccccc2)c(C#N)c(=O)[nH]1,,inactive: -33.2%
CSc1ccc(Cl)c(C(=O)NCc2ccco2)c1,"inconclusive: 89.1 µM [inhibitor, single point]",
CCN(CC)c1cc(C)c2cc(NC(=O)c3ccccc3OC)ccc2n1,inactive,
O=C(COC(=O)CCc1nc2ccccc2s1)Nc1cccc(S(=O)(=O)N2CCOCC2)c1,"inconclusive: 89.1 µM [inhibitor, single point]",
N#C/C(=C\c1ccc([N+](=O)[O-])cc1)c1ccccn1,"inconclusive: 28.2 µM [inhibitor, partial curve, poor fit]",
Cn1c(-c2ccc3c(c2)OCO3)cnc1NCc1ccc(Cl)cc1,"inconclusive: 1.78 µM [inhibitor, partial curve, poor fit]",
CC12CC3CC(C)(C1)CC(Nc1nc(N4CCOCC4)nc4ccccc14)(C3)C2,"inconclusive: 79.4 µM [inhibitor, single point]",
CCS(=O)(=O)N1CCC(n2c(C(F)(F)F)nc3cccnc32)CC1,,inactive: 7.41%
CCOC(=O)c1c(C)[nH]c(C(=O)OCC(=O)N(CC(C)C)C2CCS(=O)(=O)C2)c1C (configuration not stated),,inactive: 49.4% [at 12.7 µM]
COc1cc(NC(=O)CN(C)S(=O)(=O)c2ccc(C)cc2)cc(OC)c1,"inconclusive: 3.55 µM [inhibitor, partial curve, poor fit]",
N#CC1=C(N)SC(N)=C(C#N)C1Cc1ccccc1,"inconclusive: 8.91 µM [inhibitor, full curve, poor fit]",
O=C(CSc1nc(-c2ccc(F)cc2)[nH]c1-c1ccccc1)NCC1CCCO1 (configuration not stated),,inactive: -47.1%
CC(=N/O)/C(C)=N\NC(=O)c1ccccn1,,inactive: 0.573% [at 102 µM]
Cc1ccc(CN(Cc2ccco2)C(=O)COc2cc(C)c(Cl)c(C)c2)cc1,,inactive: 48.1%
Cc1cccc(C(=O)NC(C)C(=O)NC(c2nc3ccccc3[nH]2)C(C)C)c1 (configuration not stated),"inconclusive: 7.08 µM [inhibitor, partial curve, poor fit]",
CCOc1ccc(CSC2=NCCN2)cc1[N+](=O)[O-],,inactive: 10%
COc1ccccc1-n1nnnc1SCC(=O)Nc1ccc(C)c(N)c1,"inconclusive: 79.4 µM [inhibitor, single point]",
CCN(CC(=O)Nc1c(F)cccc1F)C(=O)CCNS(=O)(=O)c1ccc(C)c(C)c1,"inconclusive: 6.31 µM [inhibitor, partial curve, poor fit]",
COc1ccc(CCNC(=O)c2ccc3c(c2)N(Cc2ccccc2F)C(=O)c2ccccc2S3(=O)=O)cc1OC,active: 7.94 µM,
COc1cccc(C2C3=C(CC(C)(C)CC3=O)Nc3cc4c(cc32)OCO4)c1 (configuration not stated),"inconclusive: 89.1 µM [inhibitor, single point]",
O=C(NNc1ccc([N+](=O)[O-])cc1[N+](=O)[O-])C1C2CCCCC21 (configuration not stated),"inconclusive: 89.1 µM [inhibitor, single point]",
Cc1ccc(NC(=Nc2ccc(Br)cc2)N2CCOCC2)cc1C,,inactive: 13.6% [at 102 µM]
Cc1ccc(CN(C)C(=O)c2cc(COc3cccc(C(F)(F)F)c3)on2)o1,active: 31.6 µM,
